Measurements published in patent US11365205B2 (Aurigene Discovery Technologies Limited, priority 2018, dated 2022).

Biological target: PRMT5/MEP50 Complex (Homo sapiens (Human), UniProt O14744)
Assay: PRMT5 inhibition based on TR-FRET assay
Type: biochemical
Conditions: 32 nM PRMT5:MEP50, 50 nM Histone-H4 peptide, 1 μM SAM
Source text: PRMT5 Inhibition Based on TR-FRET Assay:
Protein arginine methyltransferase 5 (PRMT5) is a type II arginine methyltransferase that catalyze mono- and symmetric demethylation on arginine residues of histone or non-histone proteins in presence of S-adenosylmethionine (AdoMet or SAM) a cofactor responsible for donating the methyl group. PRMT5 is reported to be overexpressed in several human cancers. To identify compounds that inhibit the PRMT5 and decrease its activity, a TR-FRET based assay has been established. Time-resolved fluorescence resonance energy transfer (TR-FRET) HTS assays are homogeneous proximity assays where the interaction of two dye-labeled binding partners is detected by the energy transfer between a donor and an acceptor dye and the subsequent light emission by the acceptor dye. PRMT5 catalyzes Histone H4 peptide which is biotin tagged to the Lysine amino acid at carboxyl end, in presence of S-adenosyl-1-methionine (SAM) to methylate the peptide. The antibody specific to mono methylated H4 peptide (H4R3) with Ig conjugate binds to the methylated peptide, indirectly binding to the Europium lanthanide. […]
The compound dilutions were prepared as 7.5% DMSO stock solutions in assay buffer. […] The plates were then read on Victor-3 with Excitation at 340 nm and Emissions collected at 615 and 665 nm in TR-FRET protocol. […]

Sequence of UniProt O14744 (O14744 whole entry): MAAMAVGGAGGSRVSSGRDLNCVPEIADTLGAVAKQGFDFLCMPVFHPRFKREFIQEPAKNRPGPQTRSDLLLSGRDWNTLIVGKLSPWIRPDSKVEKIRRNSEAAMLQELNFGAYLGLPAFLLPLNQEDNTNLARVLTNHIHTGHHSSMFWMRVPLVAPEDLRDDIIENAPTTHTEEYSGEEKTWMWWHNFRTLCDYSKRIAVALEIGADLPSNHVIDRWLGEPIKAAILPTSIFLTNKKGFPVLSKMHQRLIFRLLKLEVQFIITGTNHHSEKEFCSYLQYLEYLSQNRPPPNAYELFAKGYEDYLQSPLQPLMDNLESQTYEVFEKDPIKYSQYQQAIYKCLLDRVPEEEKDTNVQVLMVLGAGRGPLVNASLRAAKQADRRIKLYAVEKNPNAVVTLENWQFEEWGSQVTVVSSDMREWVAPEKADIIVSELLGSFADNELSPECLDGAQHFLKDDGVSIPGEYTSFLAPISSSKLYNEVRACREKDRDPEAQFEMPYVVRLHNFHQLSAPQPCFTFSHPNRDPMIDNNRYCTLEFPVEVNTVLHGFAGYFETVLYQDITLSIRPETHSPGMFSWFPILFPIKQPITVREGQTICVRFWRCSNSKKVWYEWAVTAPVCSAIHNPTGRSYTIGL
Sequence of UniProt O14744 (Q9BQA1 whole entry partner): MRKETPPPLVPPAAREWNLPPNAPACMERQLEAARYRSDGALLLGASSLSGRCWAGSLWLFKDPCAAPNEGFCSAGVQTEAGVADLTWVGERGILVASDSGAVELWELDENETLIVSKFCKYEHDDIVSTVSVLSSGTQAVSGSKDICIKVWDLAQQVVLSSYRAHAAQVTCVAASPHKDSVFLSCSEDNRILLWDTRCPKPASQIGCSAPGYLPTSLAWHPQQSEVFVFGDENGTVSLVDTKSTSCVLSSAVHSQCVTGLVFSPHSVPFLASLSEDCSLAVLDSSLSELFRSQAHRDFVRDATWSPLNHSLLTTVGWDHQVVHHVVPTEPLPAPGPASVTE

SMILES | IC50 [µM]
CC1(C)CN(Cc2ccc(C#N)cn2)C(=O)N1CC(O)CN1CCc2ccccc2C1 (centres unmarked) [Example 38, 6-((3-(3-(3,4-Dihydroisoquinolin-2(1H)-yl)-2-hydroxypropyl)-4,4-dimethyl-2-oxoimidazolidin-1-yl)methyl)nicotinonitrile] | 0.16
N#Cc1ccc(CN2CCN(CC(O)CN3CCc4ccccc4C3)C2=O)cc1F (centres unmarked) [Example 39, 4-((3-(3-(3,4-Dihydroisoquinolin-2(1H)-yl)-2-hydroxypropyl)-2-oxo-imidazolidin-1-yl)methyl)-2-fluorobenzonitrile] | 0.22
